In paper PMC4336329 (PLoS ONE, 2015):
Among all 310,000 compounds or so, about 14,000 (4.5%) showed an effect of 50% or more. Effects have a minus sign here. The list shows a part of the results.

Target: human ether-à-go-go-related gene (hERG) potassium channel (human, UniProt Q12809)
Experiment: primary screen, population patch clamp on CHO cells stably expressing hERG
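Also: peak tail current of the secondary pulse compared with the same well before compound.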

Sequence of human ether-à-go-go-related gene (hERG) potassium channel (Q12809 whole entry, looked up): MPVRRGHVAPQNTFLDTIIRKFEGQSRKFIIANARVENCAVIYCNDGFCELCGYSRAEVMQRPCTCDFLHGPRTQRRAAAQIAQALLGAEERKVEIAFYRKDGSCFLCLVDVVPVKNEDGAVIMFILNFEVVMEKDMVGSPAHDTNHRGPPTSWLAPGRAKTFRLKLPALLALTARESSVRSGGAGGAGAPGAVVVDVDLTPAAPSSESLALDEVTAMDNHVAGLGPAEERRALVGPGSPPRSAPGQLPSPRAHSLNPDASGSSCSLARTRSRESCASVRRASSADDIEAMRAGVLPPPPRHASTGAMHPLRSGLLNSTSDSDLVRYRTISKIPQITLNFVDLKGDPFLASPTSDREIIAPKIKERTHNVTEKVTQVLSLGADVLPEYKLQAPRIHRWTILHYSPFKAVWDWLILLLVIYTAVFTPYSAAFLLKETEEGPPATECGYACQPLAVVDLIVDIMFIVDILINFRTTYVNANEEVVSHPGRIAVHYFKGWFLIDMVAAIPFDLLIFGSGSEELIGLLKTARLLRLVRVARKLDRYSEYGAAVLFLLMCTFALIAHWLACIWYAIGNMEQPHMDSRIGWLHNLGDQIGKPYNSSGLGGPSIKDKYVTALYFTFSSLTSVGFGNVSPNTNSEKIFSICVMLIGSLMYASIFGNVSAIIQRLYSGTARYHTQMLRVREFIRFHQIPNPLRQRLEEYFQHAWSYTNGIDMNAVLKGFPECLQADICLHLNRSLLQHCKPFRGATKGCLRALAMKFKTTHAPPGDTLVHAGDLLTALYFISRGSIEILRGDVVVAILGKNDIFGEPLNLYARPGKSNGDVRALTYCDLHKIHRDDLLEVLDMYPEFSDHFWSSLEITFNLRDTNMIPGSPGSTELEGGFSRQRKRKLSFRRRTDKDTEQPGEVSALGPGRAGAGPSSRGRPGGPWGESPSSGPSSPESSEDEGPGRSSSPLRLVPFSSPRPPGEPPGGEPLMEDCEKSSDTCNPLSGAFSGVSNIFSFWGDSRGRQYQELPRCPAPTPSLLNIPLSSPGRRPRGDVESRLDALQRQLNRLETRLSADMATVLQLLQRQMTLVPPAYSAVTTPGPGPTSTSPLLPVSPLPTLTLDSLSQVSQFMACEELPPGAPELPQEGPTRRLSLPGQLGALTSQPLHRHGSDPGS

Row | SMILES | hERG current change (%, negative = inhibition) at 10uM [%]
1 | COc1ccc(-c2ccc(=O)n(Cc3ccc([N+](=O)[O-])cc3)n2)cc1 | -75
2 | C=CCNC(=S)N/N=C/c1ccc(-c2ccc(Br)cc2)o1 | 15.5
3 | Cn1c(=O)c2c(ncn2CCc2ccccc2)n(C)c1=O | 14.7
4 | C=CCNC(=O)/C(C#N)=C/c1c(N2CC(C)OC(C)C2)nc2ccccn2c1=O (stereo not drawn) | -25.1
5 | CCC(=O)N1CCc2cc(Br)cc(S(=O)(=O)NCCN3CCCCC3C)c21 (stereo not drawn) | -6.93
6 | O=C(Cn1nc(-c2cccc(Cl)c2)ccc1=O)Nc1ccccc1Br | 10.7
7 | Cc1ccc(C2CC(c3ccc(Cl)cc3)=NNC2=O)cc1 (stereo not drawn) | -24
8 | O=C(NCCS(=O)(=O)NCc1ccc(F)cc1)c1ccc2c(c1)OCO2 | -39.8
9 | Cc1cc(C(=O)NNC(=O)COc2ccccc2Cl)n[nH]1 | 11
10 | O=c1[nH]c(=S)[nH]c(O)c1N=Nc1ccc(OC(F)F)cc1 | 1.51
11 | O=S(=O)(NCC1CCCO1)c1ccc(-c2ccc(S(=O)(=O)NCC3CCCO3)cc2)cc1 (stereo not drawn) | -17
12 | CCCc1cc(=O)oc2cc3oc(C)c(C)c3cc12 | 3.6
13 | CSCc1ccc(C(=O)Nc2ccc(C(N)=O)cc2)cc1 | 12.3
14 | Cc1ccc(-c2ccc(SCC(=O)Nc3cc(C)on3)nn2)cc1 | 20
15 | CCCCN(CC)S(=O)(=O)N1CCC(C(=O)NCCCN2CCOCC2)CC1 | 16.9
16 | CCCS(=O)(=O)N1CCCC(C(=O)NCCCN2CCN(c3ccccc3F)CC2)C1 (stereo not drawn) | -21.1
17 | O=C(c1ccco1)N1CCN(c2ncnc3scc(-c4ccc(F)cc4)c23)CC1 | -70.2
18 | CCCC(=O)Nc1nc2c(s1)COc1ccccc1-2 | 8.38
19 | O=[N+]([O-])c1ccc(NC(=S)N2CCOCC2)cc1 | -14
20 | Cc1ccccc1N1C(=O)CSC1=C(C#N)C#N | 18.3
21 | COc1cnc(-c2ccccc2)c(-c2ccccc2)n1 | 1.06
22 | Cc1ccc(S(=O)(=O)N2CCN(c3ccc([N+](=O)[O-])c4cccnc34)CC2)cc1 | -9.52
23 | COC(=O)C1C(=O)OC(C)(C)C1C(C)C(=O)c1ccccc1 (stereo not drawn) | 15.8

Row | SMILES | hERG current change (%, negative = inhibition) at 10uM [%]
24 | O=c1cccc2n1CC1CC2CN(Cc2c(Cl)cccc2Cl)C1 (stereo not drawn) | -40.5
25 | CCOc1ccc(NCc2cc3cc(OC)ccc3[nH]c2=O)cc1 | 2.01
26 | COc1ccc(OC(=O)COc2cccc(C)c2)cc1 | 13.8
27 | Cc1oc2ccc(OCc3ccccc3F)cc2c1C(=O)O | 4.78
28 | Cc1cc(C)c2cc(C#N)c(N3CCCC3)nc2c1 | -3.43
29 | Cc1ccc(N(CC(N)=O)C2SC(=O)N(C)C2=O)cc1 (stereo not drawn) | -2.34
30 | Cc1ccc(-c2nc(N3CCN(C)CC3)c3ccccc3n2)cc1.Cl | -59.9
31 | CCN(CC)CCOC(=O)c1c(C)oc2ccc(O)cc12.Cl | -23.5
32 | COc1ccccc1N1CC(C(=O)Nc2ccccc2N2CCCC2)CC1=O (stereo not drawn) | 11.5
33 | COc1ccc(-c2c(C(=O)O)nc3ccccc3c2C(=O)O)cc1 | 5.04
34 | Clc1cccc(Sc2ccc(-c3ccccn3)s2)c1 | 15.9
35 | CC1CC(C)CN(C(=O)CCNS(=O)(=O)c2ccc3c(c2)CCC(=O)N3)C1 (stereo not drawn) | 8.96
36 | CC(Sc1nc(-c2ccccc2)cc(C(F)(F)F)n1)C(=O)Nc1sc2c(c1C#N)CCC2 (stereo not drawn) | -0.44
37 | COc1cc2c(cc1OC)C(c1cc(Br)c(OC)c(OC)c1)CC(=O)N2 (stereo not drawn) | 19.2
38 | COc1cccc(CNC(=O)CCCC(=O)NC(C)CCc2ccccc2)c1 (stereo not drawn) | -5.45
39 | CC(=O)NCCc1ccc(O)cc1 | 2.07
40 | CCCNc1nc(OCC(F)(F)F)nc(OCC(F)(F)F)n1 | 3.4
41 | CN(C)CCCNC(=O)c1ccc(-c2nc(-c3ccc(Cl)cc3)cs2)cc1 | -10.7
42 | CC(C)Cc1nnc(NC(=O)CCS(=O)(=O)c2ccc(Cl)cc2)s1 | 14.5
43 | CCOc1cc(-c2nccc3cc(OC)c(OC)cc23)cc(OCC)c1OCC | -46.8
44 | O=C(O)C(=O)O.O=C(c1ccco1)N1CCN(Cc2ccc(F)cc2)CC1 | 4.23
45 | Cc1[nH]c(=O)[nH]c(=O)c1S(=O)(=O)Nc1ccc(F)c([N+](=O)[O-])c1 | 1.37
46 | COc1cc(CNCc2ccccc2)c(Br)cc1OC1CCCC1.Cl | -13.4

Row | SMILES | hERG current change (%, negative = inhibition) at 10uM [%]
47 | CCN(CC)C(=O)C1CC(=O)OC12CCCCC2 (stereo not drawn) | -0.326
48 | CCCCc1c(O)nc(SCC(=O)N2CCOCC2)n(-c2ccc(OC)cc2)c1=O | 13.4
49 | COCCCNC(=O)c1ccc(S(=O)(=O)c2ccc(C)cc2)c(NC(C)=O)c1 | 16.2
50 | CCN(CC(=O)Nc1ccc(NC(C)=O)cc1)Cc1c(O)ccc2cc(Br)ccc12 | 6.76
51 | CCOc1ccccc1NC(=O)C(CC(C)C)NC(=O)C1CCC(C)CC1 (stereo not drawn) | -15.7
52 | CCCCNC(=O)c1cc2ccccc2s1 | 10.8
53 | CCCCCCCCCCCCN1[C@@H](CC(C)=O)c2cc(F)cc(F)c2S1(=O)=O | 15.5
54 | CCOc1ccc(CCNC(=O)c2nn(C)c3c2CS(=O)(=O)c2ccccc2-3)cc1OCC | -39.7
55 | O=C(CC(=O)N/N=C/c1ccc(O)cc1)N/N=C/c1ccc(O)cc1 | 14.3
56 | COc1cccc(CNC(=O)C2CCN(c3nnc(N4CCCC4=O)s3)CC2)c1 | 17
57 | O=C(N/N=C/C=C\c1cccc([N+](=O)[O-])c1)c1ccccn1 | 5.13
58 | O=C(CCS(=O)(=O)Cc1ccccc1)N1CCN(Cc2ccccc2)CC1 | -22.1
59 | O=C1/C(=C\c2ccc3c(c2)OCO3)N2CCC1CC2 | -6.55
60 | COc1cc(CCN2C(=O)N[C@@H](c3cccc(C(F)(F)F)c3)C(C(C)=O)=C2C)cc(OC)c1OC | -41
61 | COCc1cc(N2CCCCC2)nc(-c2ccccc2)n1 | -6.15
62 | COc1ccccc1C(=O)N(Cc1cccs1)C1CCS(=O)(=O)C1 (stereo not drawn) | 8.04
63 | COc1ccc(C(=O)Nc2ccc3nc(N4CCCCC4)cc(C)c3c2)cc1OC | -56.8
64 | CC(C)C[C@@H](CSc1ccccc1)N1CCN(C)CCC1=O | -16
65 | COCC(C)N1CCC(Oc2cccc(C(=O)NCCc3ccccc3)c2)CC1 (stereo not drawn) | -66.3
66 | CCCS(=O)(=O)N1CCC(C(=O)NCCC(C)C)CC1 | 4.73
67 | Cc1ccc(-c2csc(NC(=O)c3c(C)noc3C)n2)cc1C | -2.64
68 | CCN(CC(=O)Nc1ccccc1C(F)(F)F)C(=O)Cn1c(=O)cnc2ccccc21 | 3.49
69 | NC(=S)N/N=C/c1coc2cc(Cl)ccc2c1=O | -7.29

Row | SMILES | hERG current change (%, negative = inhibition) at 10uM [%]
70 | COc1ccccc1OC(=O)c1ccc(S(=O)(=O)N(C)C)cc1 | -0.162
71 | CCCCNC(=S)NNC(=O)c1ccncc1 | 15.8
72 | CCc1cc(C=C(Cl)Cl)oc(=O)c1C | -12.3
73 | COc1cc(/C(C)=N/N2CCOCC2)cc(OC)c1OC | 29.5
74 | COc1ccc(NC(=O)CSc2ccc3nnc(-c4cccnc4)n3n2)cc1OC | 1.17
75 | CCOc1cc(N2CCOCC2)c(OCC)cc1NC(=O)CN1C(=O)C2C3C=CC(C3)C2C1=O (stereo not drawn) | 14.3
76 | COc1cc(/C=N/NC(=O)c2cccnc2)ccc1OS(=O)(=O)c1cc(C)ccc1C | -27
77 | O=C(Nc1cccc(F)c1)C1CCN(C(=O)c2ccc(Cl)cc2)CC1 | -49.4
78 | Cc1cc(=O)[nH]c(NCc2ccc(Cl)cc2)n1 | 12.3
79 | Cc1cc(C)n(-c2nc3sc4c(c3c3nnc(SC(C)C)n23)CC(C)(C)OC4)n1 | -8.81
80 | Cc1ccc2cc(CN(Cc3ccc(F)cc3)Cc3nnnn3C3CCCC3)c(=O)[nH]c2c1 | -15.9
81 | COc1cccc(NC(=O)C2CCN(S(=O)(=O)c3ccc4[nH]c(=O)ccc4c3)CC2)c1 | -11.3
82 | O=C(Nc1ccc(-n2cnnn2)cc1)C1CCCCC1 | -4.61
83 | O=C(CSCc1nc2c(nnn2Cc2ccc(F)cc2)c(=O)[nH]1)Nc1c(Cl)cc(Cl)cc1Cl | 27.3
84 | Cc1nnc(SCC(=O)N(CCC#N)c2ccc3c(c2)OCCO3)s1 | 3.94
85 | COc1cccc(-c2nc3c(c(SCC(=O)N4CCOCC4)n2)Cc2c(CO)cnc(C)c2O3)c1 | 16.6
86 | Cc1c(C(=O)Nc2ccc3c4c(cccc24)CC3)cccc1[N+](=O)[O-] | 9.1
87 | CCc1nnc(NC(=O)c2ccncc2)s1 | 2.72
88 | Cc1ccc(NC(=O)N2CCC(c3nc4c(nnn4Cc4c(F)cccc4Cl)c(=O)[nH]3)CC2)cc1 | -1.31
89 | CC1=C(C(=O)OCc2ccccc2)C(c2cccs2)NC(=O)N1CCCC(=O)O (stereo not drawn) | 12.3
90 | O=C(Nc1nc2c(F)cc(F)cc2s1)C1CC1 | 6.36
